Results taken from the supplement of paper PMC10441789.
This is one part of the list. Antibody binding of pooled human sera (four to six donors per pool; dilution not stated) to peptides of the Trypanosoma cruzi antigen TSSA on microarrays. Quantile-normalised fluorescence in arbitrary units, mean of duplicate arrays; higher = more binding. No active / inactive call. The uninfected pools are read here as the healthy donors of the same country. The strongest signals lie near the top of the scale (about 60,000).

Legend:
Assay in all cases: antibody binding signal (normalised fluorescence) (arbitrary fluorescence units); higher = stronger serum antibody binding to peptide
[1] = system: pooled sera of chronic Chagas disease patients, Argentina
Procedure: (§1)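 Microarray of 15-residue peptides over residues 30-55 of Trypanosoma cruzi TSSAII, each with 1 to 10 substitutions at naturally variable positions, probed with one serum pool per country.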

[2] = system: pooled sera of chronic Chagas disease patients, Bolivia
Procedure: as §1

[3] = system: pooled sera of chronic Chagas disease patients, Brazil
Procedure: as §1

[4] = system: pooled sera of chronic Chagas disease patients, Colombia
Procedure: as §1

[5] = system: pooled sera of chronic Chagas disease patients, Mexico
Procedure: as §1

[6] = system: pooled sera of chronic Chagas disease patients, USA
Procedure: as §1

[7] = system: pooled sera of uninfected people, Argentina
Procedure: as §1

[8] = system: pooled sera of uninfected people, Bolivia
Procedure: as §1

[9] = system: pooled sera of uninfected people, Brazil
Procedure: as §1

[10] = system: pooled sera of uninfected people, Colombia
Procedure: as §1

[11] = system: pooled sera of uninfected people, Mexico
Procedure: as §1

[12] = system: pooled sera of uninfected people, USA
Procedure: as §1

Sequence | antibody binding signal [1] | antibody binding signal [2] | antibody binding signal [3] | antibody binding signal [4] | antibody binding signal [5] | antibody binding signal [6] | antibody binding signal [7] | antibody binding signal [8] | antibody binding signal [9] | antibody binding signal [10] | antibody binding signal [11] | antibody binding signal [12]
TDNKPATGEAPSQPG | 40600 | 41400 | 46300 | 391 | 224 | 43100 | 580 | 553 | 507 | 147 | 336 | 124
SGTDKKTAAGGAPSQ | 266 | 419 | 686 | 13000 | 946 | 962 | 234 | 151 | 174 | 246 | 242 | 161
KENKPAAGGTPSPSG | 201 | 230 | 351 | 986 | 360 | 309 | 208 | 282 | 343 | 201 | 110 | 168
TPPSGKENKAATGEA | 11700 | 13200 | 4970 | 532 | 2200 | 5530 | 1890 | 1470 | 316 | 1150 | 175 | 272
TPPSGTDKKPATGEA | 37700 | 37700 | 46500 | 9780 | 51400 | 16800 | 817 | 444 | 547 | 375 | 4850 | 482
GTDKKTATGGTPSQS | 458 | 566 | 431 | 3450 | 575 | 1380 | 366 | 192 | 249 | 477 | 295 | 109
PSGKEKKPAAGETPS | 9750 | 3530 | 10200 | 13300 | 11500 | 7280 | 595 | 583 | 106 | 315 | 95.8 | 251
GTEKKTAAGETPSQS | 398 | 364 | 550 | 509 | 625 | 1730 | 109 | 548 | 176 | 633 | 218 | 101
PPSGTDKKTATGGTP | 8420 | 1660 | 16700 | 3660 | 23500 | 2410 | 338 | 252 | 239 | 511 | 450 | 188
TEKKTATGETPSPSG | 656 | 724 | 1030 | 421 | 399 | 8080 | 374 | 241 | 379 | 154 | 361 | 2480
SGKDKKAATGEAPSQ | 18200 | 4960 | 19000 | 532 | 623 | 17200 | 332 | 72.7 | 99 | 292 | 81.3 | 85.3
SGKDKKPATGETPSQ | 28200 | 6630 | 24000 | 556 | 562 | 19800 | 231 | 256 | 182 | 808 | 612 | 117
KDKKTATGGAPSQSG | 475 | 194 | 242 | 697 | 305 | 265 | 203 | 108 | 92.5 | 77.9 | 94.7 | 101
TDNKPATGEAPSPPG | 41500 | 49900 | 48500 | 423 | 183 | 40600 | 861 | 606 | 314 | 160 | 293 | 129
PSGKEKKTATGEAPS | 13000 | 2500 | 10900 | 4030 | 4780 | 16500 | 408 | 342 | 101 | 180 | 144 | 133
TDNKPATGGTPSPSG | 927 | 826 | 2710 | 263 | 453 | 317 | 183 | 610 | 364 | 847 | 368 | 145
TISTPPSGKDNKTAT | 7150 | 1690 | 3490 | 2120 | 17000 | 2610 | 270 | 508 | 251 | 226 | 120 | 188
DNKPATGEAPSQSGA | 44700 | 48500 | 49900 | 247 | 183 | 43000 | 923 | 505 | 435 | 147 | 215 | 120
TPPSGTDNKPATGGT | 28200 | 43900 | 49600 | 3790 | 13900 | 21900 | 1280 | 874 | 1360 | 416 | 1560 | 836

Sequence | antibody binding signal [1] | antibody binding signal [2] | antibody binding signal [3] | antibody binding signal [4] | antibody binding signal [5] | antibody binding signal [6] | antibody binding signal [7] | antibody binding signal [8] | antibody binding signal [9] | antibody binding signal [10] | antibody binding signal [11] | antibody binding signal [12]
GTEKKTATGGTPSQS | 775 | 470 | 581 | 2660 | 934 | 1820 | 370 | 336 | 272 | 820 | 256 | 138
KAATGGAPSQSGASS | 655 | 195 | 373 | 207 | 693 | 236 | 409 | 168 | 112 | 102 | 914 | 164
TSSTPPSGKENKAAT | 14900 | 4110 | 9040 | 1410 | 3600 | 2290 | 3080 | 1080 | 145 | 742 | 150 | 365
GKDKKPAAGGAPSPP | 671 | 240 | 276 | 2060 | 1420 | 1390 | 134 | 88.2 | 113 | 88.7 | 71.7 | 90.8
SGKDKKTATGEAPSQ | 10800 | 4050 | 9410 | 522 | 609 | 14500 | 213 | 105 | 94.3 | 211 | 82.6 | 89.9
DKKAAAGETPSQPGA | 808 | 1570 | 31300 | 360 | 240 | 2330 | 109 | 327 | 211 | 581 | 186 | 166
PPSGTDNKPATGEAP | 46600 | 46700 | 49700 | 6070 | 4620 | 40700 | 1860 | 848 | 598 | 512 | 759 | 404
TDKKTATGGTPSPPG | 784 | 926 | 376 | 3970 | 635 | 1390 | 249 | 163 | 297 | 697 | 147 | 132
ENKTATGEAPSPPGA | 13100 | 33600 | 21000 | 223 | 490 | 21000 | 129 | 98.5 | 206 | 164 | 89.6 | 116
SGTEKKTATGETPSP | 568 | 819 | 1240 | 395 | 298 | 7490 | 341 | 420 | 185 | 130 | 198 | 626
PSGTDKKPAAGEAPS | 9110 | 4950 | 32500 | 11800 | 3510 | 13400 | 205 | 727 | 504 | 444 | 3500 | 268
TDNKPAAGEAPSPSG | 2160 | 2710 | 25700 | 326 | 134 | 16900 | 91.5 | 239 | 190 | 89.4 | 267 | 87.3
GKDKKAAAGEAPSQS | 3500 | 5150 | 1930 | 6620 | 4600 | 8900 | 151 | 91.8 | 96.1 | 100 | 81.7 | 99.6
KKAAAGGTPSPSGAS | 227 | 193 | 206 | 2130 | 214 | 1420 | 154 | 94.1 | 698 | 121 | 83.8 | 198
DKKAAAGGAPSPPGA | 367 | 250 | 283 | 5200 | 617 | 908 | 225 | 136 | 173 | 131 | 121 | 160
TPPSGTENKTAAGEA | 44200 | 34900 | 45100 | 185 | 2390 | 13100 | 1730 | 255 | 375 | 263 | 176 | 244
KDNKPATGGAPSQPG | 549 | 1430 | 21000 | 295 | 325 | 1670 | 400 | 853 | 152 | 173 | 168 | 171
TDKKPAAGGAPSPPG | 408 | 219 | 493 | 5280 | 273 | 1120 | 221 | 997 | 301 | 116 | 135 | 176
